Measurements from paper PMC4336329 (PLoS ONE, 2015).
In all, about 310,000 compounds went through this assay and about 2,200 (0.71%) showed an effect of 50% or more. Effects have a minus sign here. This is one part of the list.

Biological target: human ether-à-go-go-related gene (hERG) potassium channel (human, UniProt Q12809)
Assay: primary screen, population patch clamp on CHO cells stably expressing hERG

Sequence of human ether-à-go-go-related gene (hERG) potassium channel (Q12809 whole entry, looked up): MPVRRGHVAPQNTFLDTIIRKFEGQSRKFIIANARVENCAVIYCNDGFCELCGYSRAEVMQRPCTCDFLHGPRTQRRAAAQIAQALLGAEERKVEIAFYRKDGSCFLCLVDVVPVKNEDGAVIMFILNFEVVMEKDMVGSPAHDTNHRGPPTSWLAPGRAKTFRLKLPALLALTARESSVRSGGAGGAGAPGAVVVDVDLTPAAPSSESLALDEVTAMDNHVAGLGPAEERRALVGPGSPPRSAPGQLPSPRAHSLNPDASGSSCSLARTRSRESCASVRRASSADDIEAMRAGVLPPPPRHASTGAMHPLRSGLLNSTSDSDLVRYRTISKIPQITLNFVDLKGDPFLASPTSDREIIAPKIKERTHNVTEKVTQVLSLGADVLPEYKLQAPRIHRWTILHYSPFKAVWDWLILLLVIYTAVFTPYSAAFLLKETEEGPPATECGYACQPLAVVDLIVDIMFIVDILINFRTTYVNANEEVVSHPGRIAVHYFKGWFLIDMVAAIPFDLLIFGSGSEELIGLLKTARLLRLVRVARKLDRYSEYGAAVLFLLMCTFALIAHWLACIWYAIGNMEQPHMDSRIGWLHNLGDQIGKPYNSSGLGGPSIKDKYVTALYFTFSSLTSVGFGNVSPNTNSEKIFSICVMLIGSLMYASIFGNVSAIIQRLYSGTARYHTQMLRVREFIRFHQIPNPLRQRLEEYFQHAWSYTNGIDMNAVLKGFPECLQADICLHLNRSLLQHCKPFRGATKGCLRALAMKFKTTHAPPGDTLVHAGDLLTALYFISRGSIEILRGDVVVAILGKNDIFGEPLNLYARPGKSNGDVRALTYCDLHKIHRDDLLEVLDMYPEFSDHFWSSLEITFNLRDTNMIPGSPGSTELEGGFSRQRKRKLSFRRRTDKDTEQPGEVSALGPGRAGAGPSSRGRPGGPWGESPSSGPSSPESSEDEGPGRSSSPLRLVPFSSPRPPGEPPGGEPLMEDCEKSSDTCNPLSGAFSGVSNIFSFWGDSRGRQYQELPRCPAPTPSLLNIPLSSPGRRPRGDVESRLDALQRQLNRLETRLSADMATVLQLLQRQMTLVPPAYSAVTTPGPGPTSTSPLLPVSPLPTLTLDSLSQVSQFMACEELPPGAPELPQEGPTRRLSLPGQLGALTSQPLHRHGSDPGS

Row | Compound | hERG current change (%, negative = inhibition) at 1uM
1 | O=C(CN1CCN(c2cccc(Cl)c2)CC1)NCc1ccccc1 | 6.36%
2 | CCCC(NC(=O)COc1cc2c(c3oc(=O)c(C)c(C)c13)CCC(C)(C)O2)C(=O)O (stereo not drawn) | 9.25%
3 | CNCC(O)c1cccc(OC(=O)c2ccccc2C)c1.Cl (stereo not drawn) | 4.78%
4 | CC(OC(=O)C1CCN(S(=O)(=O)c2ccc3c(c2)OCCO3)CC1)C(=O)N(C)c1ccccc1 (stereo not drawn) | -6.83%
5 | O=C(Nc1ccc(NC(=O)c2ccco2)c(Cl)c1)c1cccc([N+](=O)[O-])c1 | 11.8%
6 | O=c1[nH]c2ccccc2n1CCCSc1cnc2ccccc2n1 | 10.8%
7 | Cn1c(Sc2nc3ccccc3n2C)nc2ccccc21 | 3.65%
8 | Cc1nn(Cc2c(Cl)cccc2Cl)c(C)c1NC(=O)/C=C/c1cnn(C)c1C | 11.5%
9 | CCCNC(=O)c1nn2cc(Br)cnc2c1Cl | -27.6%
10 | CSc1nc(C)cc(Oc2ccc(=O)n(C)n2)n1 | 3.98%
11 | C/C(=N\NC(=O)c1sccc1C)c1cccnc1 | 16.4%
12 | COc1ccc(C(=O)C2CCN(C(=O)c3ccc(OC)cc3)CC2)cc1 | -76%
13 | Cc1cc(NC(=O)CSc2nc3c(sc4ccccc43)c(=O)n2CCCN2CCOCC2)n[nH]1 | 3.66%
14 | C/C(=N\NC(=O)CCC(=O)O)c1c(-c2ccccc2)c2cc(Br)ccc2[nH]c1=O | 6.2%
15 | CCC(C)Sc1nc2c(cnn2-c2ccc(C)cc2)c(=O)[nH]1 (stereo not drawn) | 10.5%
16 | COc1cc2c(cc1OC)CN(CC(=O)Nc1ccc3c(c1)OC(F)(F)O3)CC2 | 7.61%
17 | CC1(C)CC(=O)C2=C(C1)Nc1ccccc1NC2c1ccccn1 (stereo not drawn) | 8.37%
18 | COc1ccc(NS(=O)(=O)c2ccc(NS(=O)(=O)c3cccs3)cc2)c(OC)c1 | 7.26%
19 | Cc1ccc(S(=O)(=O)NCCC(=O)NCC(=O)Nc2c(C)cccc2C)cc1C | -5.09%
20 | O=C(Nc1cccc(-n2cnnn2)c1)c1ccncc1 | 9.42%
21 | C[C@H](NC(=O)c1nc[nH]c1C(=O)NCC(=O)OC(C)(C)C)C(=O)OCc1ccccc1 | 2.4%
22 | Clc1ccccc1C1Nc2cccc3cccc(c23)N1 | 7.9%
23 | C/C(=N\NC(=O)CCCNc1ccccc1)c1ccncc1 | 17.2%

Row | Compound | hERG current change (%, negative = inhibition) at 1uM
24 | CC(C)(C)[C@H]1C=C(C(=O)NCc2ccccc2)O[C@@H](OCc2ccc(CO)cc2)C1 | 6.77%
25 | CC1(C)Cc2ccccc2-c2nc(CN3CCOCC3)[nH]c(=O)c21 | 4.9%
26 | COCCSc1ccccc1C(=O)Nc1cc(C)cc(C)c1 | 7.25%
27 | COc1cccc(CNC(=O)CSc2nnc3c(n2)[nH]c2ccc(C)cc23)c1 | 0.23%
28 | CCOC(=O)CSC1=C(C#N)C(c2ccc(OC)cc2)C2=C(CC(C)(C)CC2=O)N1 (stereo not drawn) | -3.69%
29 | C=CCNC(=O)c1snnc1-c1ccccc1 | 4.1%
30 | COc1cccc(CNC(=O)N2CCN(c3ccccc3Cl)CC2)c1 | 10.1%
31 | Cc1ccccc1Nc1nc(-c2sc(NC(=O)c3ccco3)nc2C)cs1 | 14.8%
32 | C/C=C/c1ccc(OCCCN2C(=O)NC(C)(C)C2=O)c(OC)c1 | 12.9%
33 | N#C/C(=C\C=C\c1ccccc1[N+](=O)[O-])C(=O)NCc1ccccc1 | -1.37%
34 | COc1ccc(C(=O)NCC(=O)OCC(=O)N2CCCc3ccccc32)cc1 | 6.15%
35 | COc1ccc(-n2cnnc2SCC(=O)Nc2ccc(N3CCOCC3)cc2)cc1 | -5.01%
36 | O=C(c1ccco1)N1c2ccccc2Sc2ccccc21 | 15%
37 | Cc1ccc(C(Sc2ccccc2)C(Cn2cncn2)C(=O)c2ccccc2)cc1 (stereo not drawn) | 16%
38 | CCN(CC)CCCNc1ccc(-c2nnc(-c3ccc(OCC(C)C)cc3)o2)cn1 | -0.619%
39 | CCOC(=O)c1sc(NC(=O)CCc2ccccc2)nc1C | 20.7%
40 | O=C(O)CNc1ccccc1C(=O)O | 7.1%
41 | CC(C)c1ccc(S(=O)(=O)N2CCC(C(=O)NCC3(N(C)C)CCCCC3)CC2)cc1 | -7.38%
42 | CCN(CC)C(=O)Cn1cc(SCC(=O)NC)c2ccccc21 | -10.2%
43 | O=C(c1cc2n(n1)C(C(F)(F)F)CC(c1ccc(F)cc1)N2)N1CCCC1 (stereo not drawn) | 7.93%
44 | CC(=O)c1ccc(OCC(C)C)c(Cc2c(O)nc(N)[nH]c2=O)c1 | 10.2%
45 | O=C(C1CC1)N(CCN(Cc1ccccc1)C(=O)C1CC1)Cc1ccccc1 | -9.21%
46 | CCc1cc(=O)oc2cc(C)cc(OCC(=O)C(C)(C)C)c12 | 10.1%

Row | Compound | hERG current change (%, negative = inhibition) at 1uM
47 | COC(=O)/C=C1\OC(c2ccccc2)=CC1=O | 6.38%
48 | Cc1cccc(CN2C3=NCCCN3c3ccccc32)c1.Cl | -16.9%
49 | Cc1cccc(/C=C2\CCC(C3CCCC3)C2=O)c1 (stereo not drawn) | -1.34%
50 | COC(=O)CN(C#N)c1nc(C)cc(C)n1 | 6.94%
51 | Cc1ccccc1C(=O)N1CCN(c2ccc(NC(=O)c3cccnc3Cl)cc2)CC1 | 13.8%
52 | CCOc1ccc(NC(=O)c2ccc(Cn3nc(C)cc3C)o2)cc1 | 8.02%
53 | COc1ccc(C(=O)C[N+]2(C)CCOCC2)cc1.[I-] | 2.43%
54 | Cc1ccccc1OCCOC(=O)c1cc(S(=O)(=O)N2CCCCC2)ccc1N1CCOCC1 | 4.95%
55 | CN1CCC2(CC1)C(C#N)=C(N)NC(S)=C2C#N | 7.91%
56 | CCOCCCNC(=S)N1CCN(c2nc(-c3ccc(F)cc3)cs2)CC1 | 15.5%
57 | COc1cc(OC)cc(-c2nc3cc(C)ccc3o2)c1 | -12.3%
58 | COc1ccc(C(=O)CN2C(=O)NC3(CCc4ccccc43)C2=O)cc1 (stereo not drawn) | 0.286%
59 | CCCCn1c(N)c(N(CCOC)C(=O)C2CC(=O)N(c3cccc(SC)c3)C2)c(=O)[nH]c1=O (stereo not drawn) | 16.9%
60 | O=S(=O)(c1cccc2cccnc12)N1CCc2ccccc21 | 9.78%
61 | CCOC(=O)NC1(C(F)(F)F)C(=O)N(Cc2ccccn2)C2=C1C(=O)CC(C)(C)C2 (stereo not drawn) | 22.1%
62 | O=C(c1ccc2nccnc2c1)N1CCN(Cc2ccc3c(c2)OCO3)CC1 | 8.04%
63 | Cc1cc(S(=O)(=O)NCc2ccco2)c(C)s1 | 8.32%
64 | CCOC(=O)C1CCCN(c2c(C(=O)c3ccccc3)cnc3ccc(OC)cc23)C1 (stereo not drawn) | 3.13%
65 | C=C(C)CCC1(C)NC(=O)N(c2ccccc2)N1 (stereo not drawn) | -5.43%
66 | CC1CN(CCCOc2ccc([N+](=O)[O-])cc2)CC(C)O1.O=C(O)C(=O)O (stereo not drawn) | -59.6%
67 | CCN(CC)C(=O)CSc1nc2ccc(NC(=O)CSc3nnc(N)s3)cc2s1 | 6.59%
68 | O=C(N1CCCCC1)N1CCN(C(=O)N2CCCCC2)CC1 | 17.2%
69 | Cc1ccc([N+](=O)[O-])c(OCc2ncc(Cl)n2C)c1 | 11.9%

Row | Compound | hERG current change (%, negative = inhibition) at 1uM
70 | O=C(NCC1CCN(Cc2ccccc2Cl)CC1)Nc1ccccc1F | -6.32%
71 | Cc1cc(C(=O)N2CCCC(N3CCN(c4ccccc4C)CC3)C2)n(C)n1 (stereo not drawn) | -87.7%
72 | Cc1ccc(NCCC#N)cc1C | 6.9%
73 | Cc1ccc(N(C(C)C(=O)NCc2ccncc2)S(C)(=O)=O)cc1C (stereo not drawn) | 9.25%
74 | Cc1[nH]nc(N=CC2=C(O)CC(c3ccco3)CC2=O)c1-c1ccccc1 (stereo not drawn) | 19.8%
75 | O=C1CCCC(O)=C1N=Nc1c(Cl)cc(Cl)cc1Cl | 18.8%
76 | CC(C)C(c1nnnn1C1CCCC1)N1CCCCC1.Cl (stereo not drawn) | 16.5%
77 | CC(c1ccccc1)N1CC(C(=O)N2CCN(c3ccccc3)CC2)CC1=O (stereo not drawn) | -7.58%
78 | COc1ccc(NC(=O)CCc2nc3ccccc3[nH]2)cc1 | 7.35%
79 | CC1CCN(c2ccc(NC(=O)C3CCCN3S(=O)(=O)c3ccc(F)cc3)cc2)CC1 (stereo not drawn) | 5.75%
80 | CCOC(=O)Cn1c(=O)oc2cc(S(=O)(=O)NCC3CCCO3)ccc21 (stereo not drawn) | 4.16%
81 | CN(C)c1ccc(C(=O)/C=C/c2ccco2)cc1 | 12.4%
82 | CCC(=O)N1CCc2cc(Br)cc(S(=O)(=O)CC(=O)OC)c21 | 15.3%
83 | COc1ccc(-n2nc(C(=O)NCC(=O)N3CCOCC3)c3ccccc3c2=O)cc1OC | 3.31%
84 | COc1ccc(-c2csc(Nc3ncccc3C)n2)cc1 | -7.99%
85 | Cc1ccc(NC(=O)c2nc[nH]c2C(=O)N2CCN(C(=O)OC(C)(C)C)CC2)cc1 | -2.67%
86 | COc1ccccc1-c1cc(C(=O)N/N=C\c2cn(C)nc2C)c2ccccc2n1 | 9.11%
87 | Cc1ccc2c(CNCc3ccco3)cc(=O)oc2c1 | -1.01%
88 | Cc1c(Cl)cn2c(=O)cc(CN(C)Cc3nc4ccccc4c(=O)[nH]3)nc2c1Cl | -5.39%
89 | CCOP(=O)(c1ccc(N(C)C)cc1)C(O)c1c(Cl)cccc1Cl (stereo not drawn) | -1.75%
90 | O=C(CSc1nnc(CNC(=O)c2c(F)cccc2F)o1)NCc1ccc(F)cc1 | 10.7%
